Sequences with one replicate were seen in a single cluster, so their values are uncertain.
System: ATP
Test: switch fluorescence ratio, 500 uM ATP over buffer (Cy3 cluster intensity, sum of 5 cycles each) (fold (ratio)); higher = stronger signal-on switching upon ATP binding; sequences stand for … in TCGTCGGCAGCGTCAGATGTGTATAAGAGACAGTTTTTTTTTTTTTTTTTTTTTTTTT…TC
Details: aptamer strand: ATP DNA aptamer (quencher-CACCTGGGGGAGTATTGCGGAGGAAGG + anchor), 100 nM annealed; ATP concentration: 500 uM; one replicate
Procedure, shortened: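 Switching-strand clusters labelled with Cy3 on a modified Illumina MiSeq flow-cell were annealed to 100 nM quencher-labelled ATP aptamer, imaged in selection buffer, and re-imaged after 15 min with 500 uM ATP at 22 °C. This was done over five cycles with NaOH stripping and re-annealing in between. The fluorescence ratio is summed target-cycle over summed buffer-cycle Cy3 intensity per cluster, averaged per switch-domain sequence, excluding clusters outside 100-1000 RFU.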
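Further: ATP exposure 15 min at 22 °C before imaging.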

| Sequence | switch fluorescence ratio |
| --- | --- |
| AACCAAAGTG | 0.951 |
| CGCTGGGACT | 1.18 |
| TACCTTGCA | 1.06 |
| CTGCACAAGC | 1.33 |
| GTTGCGCAGG | 1.04 |
| AGGTCTGGGA | 1 |
| AAACAAGGCT | 1.05 |
| CCAGGATCAG | 1.03 |
| AATCGGCCAA | 1.03 |
| CTATATGGGG | 0.98 |
| GCATTAGTGG | 0.984 |
| AACTCTCGTT | 0.976 |
| GGTTTGGTCT | 0.952 |
| AGAGCTATCG | 0.99 |
| GAACTTTGAT | 0.979 |
| GTACTCGTGC | 1.01 |
| GAGCCCAGTT | 1.09 |
| CTGGCCAGGG | 0.991 |
| GTGTCTATGA | 1.03 |
| GTAGTCGGTC | 1.01 |
| ACTTAATGCT | 1.04 |
| CTACGCTAGT | 1.29 |
| GTAATTCGCA | 1.06 |
| GGTGTCGAGA | 0.996 |
| CAGTTAAATT | 1.01 |
| AGGGTAGAG | 1.01 |

| Sequence | switch fluorescence ratio |
| --- | --- |
| GTCAGTTATT | 1 |
| TGTGGAGCAC | 1.38 |
| GACGATCATC | 1.08 |
| GTCATAATTA | 0.989 |
| TGCTACTTCA | 1.04 |
| GGATTCTGGT | 1.15 |
| TCTCCTTGCT | 1.16 |
| CGCTTACTGA | 1.24 |
| CTTTAAATCG | 0.988 |
| AGACATTATT | 0.982 |
| GCGGATTAAA | 0.987 |
| CCACGGTGGT | 1.57 |
| GATGAGGGA | 1.03 |
| ATTATCGGAC | 0.989 |
| GAGTAAGA | 1.02 |
| CGCGGTGTG | 1.02 |
| GAGTGCTGGT | 0.955 |
| CCAATATTTT | 1.01 |
| TACCTAC | 1.43 |
| GATTCAGCTG | 1.04 |
| CGTTGAAATG | 0.976 |
| ACAGTGTCGC | 1 |
| CCTTAGAGTA | 1.01 |
| TCCGGGTTCT | 1.03 |
| ACCTGAACCA | 1.11 |
| GCAAACACTC | 1.41 |

| Sequence | switch fluorescence ratio |
| --- | --- |
| GGGATGTCCT | 0.989 |
| CGTTGCAGGA | 1.07 |
| TTTAGGGCAC | 1.07 |
| AAAGAGAGT | 0.985 |
| GTTCGGTTAG | 0.993 |
| TACACCTAAC | 1.34 |
| TGAGTTTGAT | 1.02 |
| CTTAGGTTGG | 0.994 |
| CAAATCCCAT | 0.995 |
| CGTGTGAGGC | 1 |
| TCCATAGAAT | 1 |
| GATCGTAGTG | 0.95 |
| GGCATCGACG | 0.96 |
| CCTCACTGAA | 1.21 |
| TCTATATGTC | 1.03 |
| TGCTTTACAC | 1.01 |
| TTTACCTTGT | 0.987 |
| CATGGGATGT | 1.07 |
| CATCCGTGAA | 3.58 |
| GCTTGTGTG | 0.971 |
| GCTAGTTTGG | 1.03 |
| AGGACGTAAC | 1.37 |
| GACTCTTTTA | 1 |
| AGAGCAGAGA | 0.954 |
| TCGGGGGT | 1.01 |
| TTCGTTACCG | 1 |

| Sequence | switch fluorescence ratio |
| --- | --- |
| GCTAAAGTGT | 0.966 |
| TAGGACAGTT | 1.01 |
| GATTCTCTTG | 0.968 |
| AATTAACAGG | 1.06 |
| GAGAAGGCTT | 1.07 |
| AGGCGCCACA | 0.989 |
| ACCATCCTC | 1.8 |
| ACGAATGTAA | 0.95 |
| TGTTCTCCGG | 1.02 |
| CGACATCAG | 0.993 |
| TTTGAGGAAC | 0.995 |
| TTTATACCGG | 1.03 |
| TAACGCGGGA | 0.877 |
| GCCAAGGGAG | 1.01 |
| CTACCTCTGG | 1 |
| CTAGAACAGG | 1.03 |
| AATCCCTAAC | 1.02 |
| CGTCGGGCTG | 1.01 |
| CGCCCCCAAG | 2.74 |
| TTCTCAGGTT | 1.03 |
| GTGCTTATTA | 1.04 |
| AACCGTTGTG | 0.987 |
| CCAGATAAAC | 1.03 |
| TTTGTACTAG | 1 |
| TTATCCTGAC | 2.03 |
| TACAATTTGG | 1.01 |

| Sequence | switch fluorescence ratio |
| --- | --- |
| CATTTCCGAA | 0.999 |
| CATTGGACAT | 0.977 |
| GCTCAGAAGA | 0.967 |
| TAAGGTCAAC | 0.948 |
| GGAGGACCTG | 0.978 |
| TATTTCCG | 0.987 |
| GCCTCGGTTC | 1.04 |
| TCGGCTTTGC | 1.07 |
| GGTAGCGTAG | 1 |
| AGGTTAGCCG | 1.14 |
| TTGGTCTCTT | 0.995 |
| TTCATGGCGG | 1.02 |
| AGTGCATGGT | 0.993 |
| TATGGGCAA | 1.06 |
| ATTAGACGAT | 0.986 |
| GACCGGGGCT | 0.975 |
| GTTATGGAGT | 1.04 |
| GATTCACGC | 1.04 |
| ATTCTTTAGT | 1.04 |
| GAGCTCAGTT | 0.999 |
| TAGACCTAAG | 1.04 |
| CTTGGATCT | 0.994 |
| TCGCAGGTCA | 1.05 |
| TAACGGAGA | 0.986 |
| GTTTGGTTAC | 1.08 |
| TAGGGATGAC | 1.02 |

| Sequence | switch fluorescence ratio |
| --- | --- |
| TTTCGTAAGC | 1.24 |
| ACAAACGCGG | 1.26 |
| AGAAGTCCAT | 0.966 |
| TTGCGTCCGG | 0.987 |
| TGGTGATTG | 1.01 |
| CGTATTGATA | 1 |
| TCCCCAGGTG | 1.7 |
| GGTGGGCGCA | 0.987 |
| GCCACGCCTG | 0.97 |
| TAGATCTGAC | 0.99 |
| TGTATTCCCT | 1.01 |
| GTACGTGGCG | 1.04 |
| GACGAAGT | 1.03 |
| ACGGCAAGTA | 1.04 |
| CTTGAGCGAC | 1.41 |
| TCAAACTAGC | 0.985 |
| ATCAAACCCC | 1.17 |
| TATGCAGTCG | 0.983 |
| TGTGTAATAC | 3.86 |
| CTTGACCCGC | 1.51 |
| CACTATGTCA | 1.06 |
| GGAGGCAGCA | 0.952 |
| GCCGTCTATG | 0.998 |
| AGCATGGCC | 1.01 |
| TTCCAGACAG | 0.989 |
| ATTCCCCGT | 1.15 |

| Sequence | switch fluorescence ratio |
| --- | --- |
| AAATAGATTA | 0.985 |
| AATCGCCCTT | 0.988 |
| GCCGATGCGT | 1.1 |
| GCCCGAATGT | 0.993 |
| CCCGGGACGA | 1.04 |
| AGGTAGTATG | 1.02 |
| TCTTCCGTCA | 1.81 |
| CCCGAAGAAA | 4.2 |
| CGCAAAGACT | 2.73 |
| GTTGTCCGTT | 0.98 |
| AGCCGAAGTC | 0.972 |
| CAACCCGCTT | 1.28 |
| ATTCAAGATC | 0.989 |
| AGGTCCTG | 1.03 |
| CCGTAGGGCG | 0.99 |
| CGCCCGGCGC | 1.06 |
| CGGTTTGGGC | 0.959 |
| TTCATTTGAT | 0.952 |
| AGCTAATTAT | 1 |
| TGTAGGCGCT | 1.02 |
| TCCACGGAAC | 1.17 |
| GGAAGACGGT | 1 |
| CTTTGGGTCC | 1.04 |
| TACTGCCTCA | 1.04 |
| TTGGTGGAGT | 1 |
| TAGGTGAGTG | 1.03 |

| Sequence | switch fluorescence ratio |
| --- | --- |
| TCTAACGAGT | 1.03 |
| TGTTTAGGG | 0.977 |
| TTATTTCTCC | 1.01 |
| CTTTAATTAT | 0.998 |
| TAGTCGTTGG | 1.01 |
| CAGAGCCTA | 0.964 |
| TAAGAATA | 0.998 |
| TTAGGGGCCA | 0.956 |
| GCATGTAGCG | 1.04 |
| CGGGGAGCAG | 0.979 |
| CTGGTTCGGA | 1.05 |
| CCTGCGAGCA | 1.06 |
| CAGGGAGGCT | 0.96 |
| CGGTCCGGAG | 1.04 |
| TCTAGGCTCG | 0.981 |
| ATAAGAGTTT | 0.985 |
| CTAGACTAGA | 1.01 |
| TAGAGGTT | 0.944 |
| CGGTGGCG | 1.06 |
